# The campaign covered roughly 360,000 compounds. About 11,000 (3.1%) were called active. The inconclusive results got no clear call from the source; some entries with a clear call stand among them for comparison. Calls come from the whole dose curve; as a rule, active = well fitted inhibition curve with a large enough effect; inconclusive = small, poorly fitted or top-dose-only effect; inactive = no such curve, though single readings can be large or run the other way. Potencies of inconclusive entries are left out as doubtful fits.
# Target: Schistosoma mansoni thioredoxin glutathione reductase (TGR) (UniProt Q962Y6)
# Experiment: qHTS Assay for the Inhibitors of Schistosoma Mansoni Peroxiredoxins; note: nearly all actives have a fitted effect of over 60% in size
# Settings: purified TGR, DTNB reduction, TNB absorbance 405 nm; series mostly up to 114 µM
# Procedure, shortened: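 First, TGR (20 nM dispensed) and NADPH were mixed with compound. Second, a 15 min room-temperature incubation followed. Third, further NADPH and then DTNB were added to start the reaction. Finally, TNB absorbance was monitored kinetically.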
# Potency is the fitted concentration of half-maximal effect; tags give direction and shape of the fitted curve.
row,Structure (SMILES),Potency
1,FC(F)(F)c1ccc(CN2C[C@@H]3C(c4ccccc4)C4(c5cccnc5)CC3(C4)[C@H]2c2ccccc2)cc1 (stereo not given in full),"inconclusive [inhibitor, single point]"
2,CCCc1cc(=O)[nH]c(SCC(=O)NC2CCCc3ccccc32)n1 (stereo not given),inactive
3,Cc1ccc(/C=N/N2CCN(C3c4ccccc4-c4ccccc43)CC2)o1,"inconclusive [inhibitor, full curve]"
4,COCCCN1CN(S(=O)(=O)c2cccs2)c2nc3ccccc3nc21,"inconclusive [inhibitor, partial curve]"
5,Cc1ccc(NC(=O)C(C)N=C2NS(=O)(=O)c3ccccc32)cc1 (stereo not given),inactive
6,O=C(Nc1cccc(Cl)c1)OC1CN2CCC1CC2 (stereo not given),inactive
7,COc1cc2c(cc1OC)C(c1cccc(Br)c1)CC(=O)N2 (stereo not given),"inconclusive [inhibitor, single point]"
8,COc1cccc(-c2cc(C(=O)N3C(C)CCCC3C)no2)c1 (stereo not given),inactive
9,COc1ccc(CN2CCNC(=O)C2CC(=O)N(C)Cc2ccccn2)cc1OC (stereo not given),"inconclusive [inhibitor, single point]"
10,O=Cc1ccc2noc(-c3ccc(F)cc3)c2c1,"inconclusive [inhibitor, partial curve]"
11,CC(C)=CCC1=C(OCC(=O)O)C(=O)c2ccccc2C1=O,active: 10 µM
12,Cc1ccc(CCNC(=O)Cc2ccc(NC3=NC4CS(=O)(=O)CC4S3)cc2)cc1 (stereo not given),inactive
13,Cc1cc(C)c2c(c1)NC(C(=O)O)C1CC=CC21 (stereo not given),active: 0.631 µM
14,COc1cc(C(C2=C(O)CC(C)(C)CC2=O)C2C(=O)CC(C)(C)CC2=O)cc(OC)c1OC (stereo not given),active: 15.8 µM
15,O=C(O)/C=C/C(=O)Nc1ccc(O)cc1,"inconclusive [inhibitor, partial curve]"
16,Cc1cc(C)c(CN2CCC(n3nccc3NC(=O)C3CCCC3)CC2)cc1C,inactive
17,CCOC(=O)N1CCN(c2cc(N(C)CCO)c([N+](=O)[O-])c3nonc23)CC1,active: 35.5 µM
18,CCC(C(=O)NC1CCN(C)CC1)c1ccccc1 (stereo not given),inactive
19,O=C(NCCCn1ccnc1)/C(=C\c1ccccc1Cl)NC(=O)c1ccccc1,"inconclusive [inhibitor, single point]"
20,COc1ccc(N2CCN(C(=O)c3ccc(C)c(NC(=O)c4ccco4)c3)CC2)cc1,active: 1.78 µM
21,COc1ccc(S(=O)(=O)N(C(=O)c2ccncc2)c2ccc(OC(=O)c3ccncc3)cc2)cc1,"inconclusive [inhibitor, full curve, poor fit]"
22,COc1ccc(N2C(=O)/C(=C/c3cccs3)C(=O)NC2=S)cc1,active: 35.5 µM
23,O=C(N/N=C/c1cccc(F)c1)c1cc(-c2ccco2)nc2ccccc12,"inconclusive [inhibitor, partial curve]"
24,COCCCNC(=O)c1ccc(CS(=O)(=O)c2ccccc2C)o1,"inconclusive [inhibitor, full curve, poor fit]"
25,O=C(NCc1ccco1)c1cccc(F)c1,inactive

row,Structure (SMILES),Potency
1,c1coc(Cn2c(-c3ccco3)nc3ccccc32)c1,"inconclusive [inhibitor, full curve]"
2,CC12C(=O)N(c3cccc4cccnc34)C(=O)C1C1C=CC2C1 (stereo not given),inactive
3,Cn1c(=O)oc2cc(S(=O)(=O)CCC(=O)N3CCN(c4ccccc4F)CC3)ccc21,inactive
4,Cc1c(CC(=O)NCC(=O)NCC(=O)O)c(=O)oc2cc3oc4c(c3cc12)CCCC4,"inconclusive [inhibitor, partial curve, poor fit]"
5,Cc1nnc(SCC(=O)Nc2nonc2C)s1,"inconclusive [inhibitor, single point]"
6,COc1cc(NC(=O)Cc2ccc(S(=O)(=O)N3CCOCC3)s2)c(OC)cc1Cl,"inconclusive [inhibitor, single point]"
7,CCCCN(C(=O)/C=C/c1ccco1)c1c(N)n(CC(C)C)c(=O)[nH]c1=O,active: 44.7 µM
8,CCC1CCCCN1C(=O)COC(=O)c1ccc(Br)o1 (stereo not given),"inconclusive [inhibitor, partial curve]"
9,O=C(CSc1ccc(F)cc1)Nc1ccc(N2CCOCC2)c(Cl)c1,inactive
10,CCc1nc(SCC(=O)c2ccccc2)c2ccccc2n1,active: 44.7 µM
11,C/C(=N\Nc1ccc(S(N)(=O)=O)cc1[N+](=O)[O-])c1ccco1,active: 39.8 µM
12,COc1cccc(CN2CCNC(=O)C2CC(=O)NCCn2nc(C)cc2C)c1OC (stereo not given),"inconclusive [inhibitor, full curve]"
13,COc1ccc(N2CCN(C(=O)CCC(=O)c3cc(C)sc3C)CC2)cc1,"inconclusive [inhibitor, partial curve]"
14,Cc1ccc(S(=O)(=O)N(C)c2ccc(C(=O)NCC(c3cccs3)N3CCOCC3)cc2)cc1 (stereo not given),inactive
15,CCCn1c(=O)c2sccc2n2c(CCCC(=O)NCCc3ccc(Cl)cc3)nnc12,inactive
16,O=C(O)c1c(-c2ccccc2)c2oc3ccccc3c2[nH]c1=O,"inconclusive [inhibitor, partial curve]"
17,CCc1ccc(N2C(=O)NC(=O)/C(=C\C=C\c3ccco3)C2=O)cc1,active: 11.2 µM
18,CCCCOC(=O)c1ccc(NC(=O)c2cc(Cl)c(Cl)cc2C(=O)O)cc1,"inconclusive [inhibitor, partial curve]"
19,Cn1cccc1-c1nc2ccc(NC(=O)c3ccccc3)cc2[nH]1,inactive
20,CC(OC(=O)c1cccc(-n2cnnn2)c1)C(=O)Nc1cccc(Cl)c1 (stereo not given),inactive
21,COc1cc2cc(CN(Cc3nnnn3Cc3ccco3)C3CCCCC3)c(=O)[nH]c2cc1OC,active: 12.6 µM
22,CCC(C)(C)n1nnnc1C(c1ccc(N(C)C)cc1)N1CCN(C2CCCCC2)CC1 (stereo not given),active: 22.4 µM
23,CC(=C1C(=O)c2ccccc2C1=O)N1CCN(C/C=C/c2ccccc2)CC1,"inconclusive [inhibitor, full curve]"
24,O=C(CSc1nc2ccccc2c(=O)[nH]1)c1ccc(O)c(O)c1,"inconclusive [inhibitor, single point]"
25,COc1ccc(CCNC(=O)CC2C(=O)NCCN2CC(C)(C)C)cc1 (stereo not given),"inconclusive [inhibitor, single point]"

row,Structure (SMILES),Potency
1,CC(=O)N(C(C)=O)N1C(=O)/C(=C/c2ccc(Cl)cc2)SC1=S,"inconclusive [inhibitor, full curve]"
2,CCOC(=O)CNC(=O)c1cc(C)oc1C,active: 35.5 µM
3,c1ccc(-c2nc(-c3ccco3)n3ccccc23)cc1,active: 11.2 µM
4,Cc1cc(C(=O)CN2C(=O)NC(C)(c3cccc(Br)c3)C2=O)c(C)n1Cc1ccco1 (stereo not given),"inconclusive [inhibitor, partial curve]"
5,S=C(NCCc1ccccc1)NN=C1CCCCCC1,inactive
6,Cc1cc(-c2n[nH]c(=S)n2/N=C/C(Br)=C/c2ccccc2)n[nH]1,"inconclusive [inhibitor, partial curve]"
7,COc1ccc(CCNC(=O)CS(=O)(=O)c2cn(CC(=O)N3CCCC3)c3ccccc23)cc1OC,"inconclusive [inhibitor, partial curve]"
8,Cc1nc(SCc2cccc(F)c2)[nH]c(=O)c1C#N,"inconclusive [inhibitor, single point]"
9,COc1ccc(C/C(=N\OC(C)=O)c2ccc(OC)cc2)cc1,inactive
10,COc1cc(-c2nc3nc[nH]n3c2Nc2ccc(C(C)C)cc2)ccc1O,active: 14.1 µM
11,O=C(CN1CCN(Cc2ccccc2)CC1)N1CCN(c2ccccc2)CC1,"inconclusive [inhibitor, partial curve]"
12,OC(COc1ccc(Br)cc1)CN1CCN(c2ccccc2)CC1 (stereo not given),inactive
13,CC(C)Sc1nc(NCc2ccco2)c2c3c(sc2n1)COC(C)(C)C3,active: 22.4 µM
14,O=C(CSc1ccsc1[N+](=O)[O-])Nc1cccc(F)c1,"inconclusive [inhibitor, partial curve]"
15,COc1cc(NC(=O)CSc2nnc(-c3ccncc3)n2C2CCCCC2)ccc1NC(=O)c1ccco1,"inconclusive [inhibitor, full curve, poor fit]"
16,O=C(Cn1nnc(-c2ccc(CN3CCOCC3)cc2)n1)N1CCCc2ccccc21,inactive
17,Cc1ccn2c(CNCCn3cccn3)c(C(=O)N3CCCCCC3)nc2c1,"inconclusive [inhibitor, partial curve, poor fit]"
18,O=C(O)CC(NNC(=O)c1ccccc1)C(=O)Nc1cccc([N+](=O)[O-])c1 (stereo not given),inactive
19,COc1ccc(N(CC(=O)N/N=C/c2cc(Br)c(C)o2)S(=O)(=O)c2ccc(NC(C)=O)cc2)cc1,"inconclusive [inhibitor, partial curve]"
20,COc1ccccc1NC(=O)C1=C(C)Nc2nc3ccccc3n2C1c1cccs1 (stereo not given),"inconclusive [inhibitor, partial curve]"
21,COc1ccccc1CNC(=O)C(=O)NCC(c1ccco1)S(=O)(=O)c1cccs1 (stereo not given),active: 8.91 µM
22,Cc1cccc(N2CCN(C(=O)NCc3noc4ccccc34)CC2)c1C,inactive
23,COc1ccc(-n2c(Cc3cccn3C)nnc2SCC(=O)Nc2ccc(C)cc2C)cc1,"inconclusive [inhibitor, full curve, poor fit]"
24,CS(=O)(=O)N(CC(=O)NCc1ccccc1Cl)c1cccc([N+](=O)[O-])c1,inactive
25,O=C(c1cnn2c(C(F)(F)F)cc(-c3ccccc3)nc12)N1CCOCC1,"inconclusive [inhibitor, single point]"

# Source: PubChem BioAssay AID485364 (National Center for Advancing Translational Sciences (NCATS), 2010)
